This note sets out measurements from the supplement of paper PMC8728848.

Holding throughout (test): glycan array binding signal (z-score within array); higher = stronger binding
What all share (conditions): glycan notation: IUPAC condensed, linker removed

The target of test [1] is Neu5Gc(a2-8)Neu5Gc(a2-3)Gal(b1-4)GlcNAc(b1-3)Gal(b1-4)GlcNAc. Put shortly: (§1)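 The binding signal is a Z-score computed within each array and averaged over linkers. Arrays of the same protein sequence at different concentrations or buffers were also averaged together. Data originate from 3228 arrays in the Consortium for Functional Glycomics database, kept only where the protein sequence was available.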

The target in test [2] is Neu5Gc(a2-8)Neu5Gc(a2-6)Gal(b1-4)GlcNAc. Summed up: as §1
In test [3] the target is Neu5Gc(b2-6)Gal(b1-4)GlcNAc. Summed up:
as §1

The other results are listed elsewhere or left out.

B1: Threefoil (Haloarcula marismortui) (protein)
chain: GSSHHHHHHHHHHSSGLVPRGSHMGDGYYKLVARHSGKALDVENASTSDGANVIQYSYSGGDNQQWRLVDLGDGYYKLVARHSGKALDVENASTSDGANVIQYSYSGGDNQQWRLVDLGDGYYKLVARHSGKALDVENASTSDGANVIQYSYSGGDNQQWRLVDL
On to B1, for which the results for the “glycan array binding signal (z-score)” value in test [1], in test [2] and in test [3] were -0.184, -0.415 and -0.237, respectively.
